According to PubChem BioAssay AID463173 (ICCB-Longwood Screening Facility, Harvard Medical School, 2010):
Screen size: about 52,000 compounds; about 4,300 (8.3%) were called active. No stated cut-off is given here; in the data, active means survival mostly below about 52% (no sharp cut-off); inactive means mostly above about 56%. Some of the results follow.

System: DeltatarO mutant
Assay: S. aureus survival, RN4220 and DeltatarO strains – OD600, teichoic acid synthesis inhibitors, primary screen (AID 463173)
Details: S. aureus RN4220 wild type/DeltatarO growth, OD600, 18 h, stronger effect = lower value, screened at 18.75 µg/mL (by protocol)

| Structure (SMILES) | survival |
| --- | --- |
| O=C(CCc1ccccc1)N1CCc2c([nH]c3ccccc23)C1c1ccc(Cl)cc1 (stereo unspecified) | inactive: 71% |
| Cc1cccc(CC(=O)NC2CC(=O)N(c3ccccc3)C2)c1 (stereo unspecified) | active: -5% |
| COc1ccc(C(CNC(=O)Cc2ccc(Cl)cc2)N2CCOCC2)cc1 (stereo unspecified) | inactive: 75% |
| O=C(CSc1nc(=O)n(CCN2CCOCC2)c2c1CCC2)Nc1cccc(Cl)c1 | inactive: 95% |
| O=C(CC(c1cccs1)N1Cc2ccccc2C1=O)Nc1ccc(F)cc1F (stereo unspecified) | inactive: 55% |
| Cn1cc(CCCC(=O)NCc2cccc(Br)c2)c2ccccc21 | inactive: 66% |
| CCc1nc2ccc(C(=O)NCc3ccccc3C)cc2nc1CC | inactive: 85% |
| COc1ccc(-n2cc(-c3ccccc3)c3c(N4CCCC(C)C4)ncnc32)cc1 (stereo unspecified) | inactive: 98% |
| O=c1c(NCc2cccs2)nccn1-c1ccccc1 | inactive: 68% |
| COc1ccc(-c2cccc(NS(=O)(=O)c3cc(C(F)(F)F)ccc3Cl)c2)nn1 | inactive: 72% |
| O=C(CS(=O)(=O)c1cccc2nsnc12)NCc1ccccc1Cl | inactive: 116% |
| Cc1ccc(CN2c3ccccc3-c3nc(SCC(=O)NCc4ccccc4)ncc3S2(=O)=O)cc1 | active: 17% |
| O=C(COc1ccccc1F)Nc1nnc(SCc2cc(=O)n3ccccc3n2)s1 | inactive: 84% |
| CCOC(=O)c1cc2c(=O)n3ccccc3nc2n(CC2CCCO2)c1=NC(=O)c1cccc(C)c1 (stereo unspecified) | active: 29% |
| Cc1ccccc1Cn1nnc2sc3c(c2c1=O)CCCC3 | active: -1% |
| CCOC(=O)c1c(NC(=O)Nc2ccc(F)cc2)sc(C(=O)N(C)C)c1C | inactive: 86% |
| COc1ccc(CCNC(=O)c2ccc3c(c2)N(Cc2ccccc2Cl)C(=O)c2ccccc2S3)cc1OC | inactive: 78% |
| CCn1c(C)nc2cc(Cl)ccc21 | inactive: 93% |
| CCC(=O)C1=C(c2ccccc2)N(C(=O)CC)n2c(nnc2-c2ccccc2)S1 | active: -5% |
| CN(C)C(=O)CN(C#N)c1nc(Cl)nc(N(C)C)n1 | inactive: 92% |
| Cc1ccc(N(CC(=O)Nc2ccc(F)cc2F)S(=O)(=O)c2cccs2)cc1 | inactive: 68% |
| COc1ccc(S(=O)(=O)NNc2ncnc3sc4c(c23)CCCC4)cc1 | inactive: 64% |
| Cc1c(NC=C(C#N)C#N)c(=O)n(-c2ccccc2)n1C | inactive: 96% |

| Structure (SMILES) | survival |
| --- | --- |
| CCN(CC)S(=O)(=O)c1ccc(-c2csc(=Nc3cccc(C(F)(F)F)c3)n2Cc2ccc3c(c2)OCO3)cc1 | inactive: 150% |
| CCc1ccc(CNC(=O)Cn2nc(-c3ccc(Cl)cc3)ccc2=O)cc1 | inactive: 79% |
| COc1ccc(C2c3c(n(C)c4ccccc34)C(=O)N2CC(=O)Nc2ccc(C)cc2Cl)cc1 (stereo unspecified) | inactive: 61% |
| CN(C)c1ccc(CNC(=O)C2CCN(S(=O)(=O)c3ccc4c(c3)oc(=O)n4C)CC2)cc1 | inactive: 94% |
| COc1cccc(NC(=O)Cn2c(=O)n(Cc3ccc(C(=O)NCc4ccc5c(c4)OCO5)cc3)c(=O)c3ccccc32)c1 | inactive: 107% |
| Cc1ccc(S(=O)(=O)N2CCCc3cc(NS(=O)(=O)c4ccc(F)cc4)ccc32)cc1 | inactive: 74% |
| O=C(CC1CCCCC1)N1CCN(c2ccccc2)CC1 | inactive: 82% |
| CCCCCCc1cc2cc(-c3nnc(-c4cccc(Cl)c4)o3)c(=O)oc2cc1O | inactive: 80% |
| Cc1ccc(NC(=O)c2oc3ccc(S(=O)(=O)N4CCCCC4)cc3c2C)c(C)c1 | inactive: 79% |
| Cc1cc(C)c(NC(=O)CN2C(=O)C3(SCC(=O)N3c3ccc(F)cc3)c3ccccc32)c(C)c1 (stereo unspecified) | inactive: 74% |
| Cc1cc(C)c(NC(=O)c2c(C)oc3c2C2=NCCN2C=N3)c(C)c1 | inactive: 91% |
| Cc1cccc(N2CCN(C(=O)C(C)n3nc(C)n4c(cc5occc54)c3=O)CC2)c1C (stereo unspecified) | inactive: 78% |
| COc1ccc(C(=O)N2c3nc(-c4ccco4)nn3C3(CCCCC3)[C@@H]3CCCC[C@@H]32)cc1OC | inactive: 62% |
| O=C(Nc1ccc(F)cc1)c1oc2ccccc2c1NC(=O)C1CCCCC1 | active: 11% |
| CCC(Oc1ccc(F)cc1)C(=O)Nc1nc2c(s1)CCCC2 (stereo unspecified) | inactive: 83% |
| CC1=CC(C)C2(COC(=O)Nc3ccccc3)COC(C)C1C2C (stereo unspecified) | inactive: 95% |
| CC(=O)Nc1ccc(Oc2ccccc2)cc1 | inactive: 80% |
| CCc1ccc(-c2cc(C)no2)cc1S(=O)(=O)NCc1ccco1 | inactive: 87% |
| c1ccc(-c2nc3ccccn3c2NC2CCCC2)nc1 | active: 1% |
| CCOc1ccc(CCNC(=O)c2ccc(-n3c(C)cc4c3CCCC4)cc2)cc1OCC | inactive: 67% |
| CCOC(=O)CNC(=O)c1cc2c(=O)oc3ccccc3c2s1 | inactive: 170% |
| CCCCNc1nc2c(S(=O)(=O)c3ccc(C)cc3)nnn2c2ccsc12 | inactive: 114% |
| CCOc1ccc(N2CC(NC(=O)c3ccc4c(c3)OCO4)CC2=O)cc1 (stereo unspecified) | inactive: 70% |

| Structure (SMILES) | survival |
| --- | --- |
| Cc1cc(C)n(CCC(=O)Nc2ccc(Cl)cc2)n1 | inactive: 87% |
| Cc1ccc(C)c(N2CCN(c3nc4ccc(C)cc4nc3-n3nc(C)cc3C)CC2)c1 | inactive: 102% |
| O=C(Nc1ccccc1C(=O)OCc1cc(=O)n2nc(C3CC3)sc2n1)c1ccc(Cl)cc1 | inactive: 78% |
| CCOCCc1nnc(NC(=O)C(=O)c2cc(C)n(-c3ccc(C)c(C)c3)c2C)s1 | inactive: 55% |
| Cc1ccc(N2CCN(S(=O)(=O)c3nnc(NC(=O)c4ccccc4)s3)CC2)cc1 | inactive: 57% |
| Cc1c(C)n(Cc2ccccc2)c2ccc(C(=O)NCC(C)c3ccccc3)cc12 (stereo unspecified) | inactive: 75% |
| O=C1/C(=C\c2ccco2)SC(=S)N1Cc1ccccc1 | inactive: 73% |
| O=C(CSc1nc2c([nH]c3ccccc32)c(=O)n1-c1cccc(Cl)c1)N1CCCC1 | inactive: 75% |
| O=C(Cn1cc(S(=O)(=O)Cc2cccc(Cl)c2)c2ccccc21)Nc1ccccc1C(F)(F)F | inactive: 88% |
| CCOc1ccc(CCNC(=O)c2ccc3c(c2)N(Cc2ccc(F)cc2)CCS3)cc1 | inactive: 71% |
| O=C(NCC(c1cccs1)S(=O)(=O)c1cccs1)c1ccc(F)c(F)c1 (stereo unspecified) | inactive: 83% |
| COC(=O)c1sccc1S(=O)(=O)N(CC(=O)Nc1cc(C)ccc1C)c1ccc(C)c(C)c1 | inactive: 88% |
| C=CCc1c(C)nc(SC)nc1Nc1ccc(OC)cc1 | inactive: 72% |
| Cc1ccc(N2CC(NC(=O)c3ccc(S(=O)(=O)N(C)C)cc3)CC2=O)cc1C (stereo unspecified) | inactive: 92% |
| CCC(C)NC(=O)c1ccc2c(c1)sc1nc(-c3ccc(OC)cc3)cn12 (stereo unspecified) | inactive: 59% |
| CC(=O)N1CCc2c(sc3c2c(=O)n(Cc2ccccc2)c(=O)n3Cc2ccc(Cl)cc2)C1 | inactive: 109% |
| CN1CCN(C(CNC(=O)c2ccc(F)cc2)c2ccc3c(c2)OCO3)CC1 (stereo unspecified) | inactive: 78% |
| COc1ccc(OC)c(CCNC(=O)c2c(C)oc3ncn(CC(C)C)c(=O)c23)c1 | inactive: 75% |
| Cc1cc(C)c(Cn2c(=O)n(CCC(=O)NCCc3ccccc3)c(=O)c3ccccc32)c(C)c1 | inactive: 95% |
| CC(=O)Nc1ccc(C(=O)CSc2nc3ccccc3n2C)cc1 | inactive: 69% |
| CCCCCN1N=C(C)CC1=O | active: 39% |
| O=C(O)c1sc(Nc2ccccc2)nc1-c1ccccc1 | inactive: 172% |
| CCc1ccc2oc(-c3ccc(C)c(NC(=O)c4cc([N+](=O)[O-])ccc4N4CCOCC4)c3)nc2c1 | inactive: 54% |

| Structure (SMILES) | survival |
| --- | --- |
| CC(C)Cc1cc(C(=O)NCc2ccc(Cl)cc2)no1 | inactive: 111% |
| CCOC(=O)C1=C(c2ccccc2)N=C2SCC(=O)N2C1c1ccc(O)c(OC)c1 (stereo unspecified) | inactive: 78% |
| COc1ccc(C(=O)NCCSc2c[nH]c3ccccc23)cc1OC | inactive: 76% |
| Clc1ccc(CSc2ccc(-c3cccs3)nn2)cc1 | inactive: 118% |
| COc1ccc(-n2c(=O)c3c4c(sc3n(Cc3ccc(F)cc3)c2=O)CN(C(C)=O)CC4)c(OC)c1 | inactive: 120% |
| COC(=O)CN1C(=O)CSc2ccc(S(=O)(=O)Nc3ccc(F)c(Cl)c3)cc21 | inactive: 83% |
| CCC(CC)C(=O)N1c2ccccc2C(C)(c2ccccc2)CC1(C)C (stereo unspecified) | active: -5% |
| CSc1ncc(C(=O)Nc2cc(C)cc(C)c2)c(-c2ccccc2)n1 | inactive: 78% |
| CCOC(=O)C1=NNC2C(=O)N(c3cc(Cl)ccc3OC)C(=O)C12 (stereo unspecified) | inactive: 74% |
| Cc1ccc(NC(=O)Nc2nnc(SCC(=O)N(C(C)C)C(C)C)s2)cc1 | inactive: 89% |
| COc1cccc(CNC(=O)c2c(C)nn(-c3ccc(F)cc3)c2-n2cccc2)c1 | inactive: 101% |
| CCOC(=O)c1sc2ccccc2c1S(=O)(=O)Nc1ccc(OC)c(Cl)c1 | inactive: 89% |
| CCOc1ccc(NC(=O)Nc2nnc(N3CCCCC3C)s2)cc1 (stereo unspecified) | inactive: 64% |
| CCN(CC)c1ccc(C(=O)N2CCc3c([nH]c4ccccc34)C2c2ccc(F)cc2)cc1 (stereo unspecified) | inactive: 85% |
| O=C(CNc1ccccc1Cl)N/N=C1\CCCc2ccccc21 | inactive: 74% |
| N#Cc1cc2c(ccc3ccccc32)oc1=N | inactive: 105% |
| CCOC(=O)c1c(C)[nH]c(C)c1S(=O)(=O)NCC(=O)Nc1cccc(SC)c1 | inactive: 66% |
| CCC1CCc2nc3sc(C(=O)Nc4cccc(F)c4)c(N)c3cc2C1 (stereo unspecified) | inactive: 84% |
| CCN(CC)c1ccc(C(=O)NCc2nc3cccnc3n2Cc2ccc(C)cc2)cc1 | inactive: 85% |
| Cc1cccc(-c2nc3c4c(-c5ccccc5)c(-c5ccccc5)oc4ncn3n2)c1 | inactive: 129% |
| CC12CCC(C/C1=N\OC(=O)O)C2(C)C (stereo unspecified) | inactive: 87% |
| Cc1cccc(NC(=O)Cn2cc(S(=O)(=O)N3CCCC3)c(S(=O)(=O)N3CCCC3)c2)c1C | inactive: 90% |
